Assay [1] has as its target T1, AC9-VN and AC9-VC (AC9 fused to the N-terminal or C-terminal half of Venus) (human), O60503.
T1 chain: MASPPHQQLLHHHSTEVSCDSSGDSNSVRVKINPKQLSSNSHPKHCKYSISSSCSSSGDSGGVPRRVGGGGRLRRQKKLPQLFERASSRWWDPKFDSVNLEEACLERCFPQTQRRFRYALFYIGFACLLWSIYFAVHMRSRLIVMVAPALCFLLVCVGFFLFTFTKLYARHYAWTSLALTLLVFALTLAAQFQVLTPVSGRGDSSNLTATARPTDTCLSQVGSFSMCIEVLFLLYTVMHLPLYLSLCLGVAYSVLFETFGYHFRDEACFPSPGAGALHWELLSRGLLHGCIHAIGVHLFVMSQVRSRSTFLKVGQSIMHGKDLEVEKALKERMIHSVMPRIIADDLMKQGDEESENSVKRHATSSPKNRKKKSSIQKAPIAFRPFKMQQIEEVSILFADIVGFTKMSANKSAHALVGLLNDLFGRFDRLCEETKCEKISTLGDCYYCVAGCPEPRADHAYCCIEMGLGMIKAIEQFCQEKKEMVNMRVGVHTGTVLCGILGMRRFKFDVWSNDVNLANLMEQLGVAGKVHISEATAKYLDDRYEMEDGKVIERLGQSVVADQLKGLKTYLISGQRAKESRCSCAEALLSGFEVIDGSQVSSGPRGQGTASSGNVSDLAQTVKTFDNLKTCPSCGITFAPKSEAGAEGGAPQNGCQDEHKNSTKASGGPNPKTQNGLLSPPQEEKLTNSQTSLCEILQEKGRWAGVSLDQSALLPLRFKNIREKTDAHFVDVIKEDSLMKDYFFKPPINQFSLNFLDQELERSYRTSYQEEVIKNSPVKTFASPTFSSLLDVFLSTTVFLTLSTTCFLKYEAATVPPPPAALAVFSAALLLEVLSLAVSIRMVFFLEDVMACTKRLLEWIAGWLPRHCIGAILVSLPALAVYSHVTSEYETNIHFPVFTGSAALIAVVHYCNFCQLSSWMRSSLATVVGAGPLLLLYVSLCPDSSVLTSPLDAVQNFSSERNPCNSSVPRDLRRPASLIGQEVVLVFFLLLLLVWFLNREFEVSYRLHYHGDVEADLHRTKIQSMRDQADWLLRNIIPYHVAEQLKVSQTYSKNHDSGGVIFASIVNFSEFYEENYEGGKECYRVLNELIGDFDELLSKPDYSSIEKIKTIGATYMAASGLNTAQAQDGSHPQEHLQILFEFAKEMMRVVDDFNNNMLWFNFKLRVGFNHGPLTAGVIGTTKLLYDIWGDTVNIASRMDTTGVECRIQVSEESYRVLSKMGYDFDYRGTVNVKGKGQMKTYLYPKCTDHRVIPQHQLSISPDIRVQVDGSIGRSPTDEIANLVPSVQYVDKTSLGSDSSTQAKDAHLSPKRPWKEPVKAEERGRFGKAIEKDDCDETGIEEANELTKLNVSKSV
The experiment in a line: split reporter; BiFC (split Venus, VN and VC) in HEK293 cells, which express endogenous POPDC1 and POPDC2; plate reader and live-cell imaging; with or without ISO (10 μM, 10 min, 37°C; dose-response). As to conditions: remark: other sources report otherwise.

Protein sequences, listed by entry. Tags and fused reporters are not part of them.
UniProt O95069: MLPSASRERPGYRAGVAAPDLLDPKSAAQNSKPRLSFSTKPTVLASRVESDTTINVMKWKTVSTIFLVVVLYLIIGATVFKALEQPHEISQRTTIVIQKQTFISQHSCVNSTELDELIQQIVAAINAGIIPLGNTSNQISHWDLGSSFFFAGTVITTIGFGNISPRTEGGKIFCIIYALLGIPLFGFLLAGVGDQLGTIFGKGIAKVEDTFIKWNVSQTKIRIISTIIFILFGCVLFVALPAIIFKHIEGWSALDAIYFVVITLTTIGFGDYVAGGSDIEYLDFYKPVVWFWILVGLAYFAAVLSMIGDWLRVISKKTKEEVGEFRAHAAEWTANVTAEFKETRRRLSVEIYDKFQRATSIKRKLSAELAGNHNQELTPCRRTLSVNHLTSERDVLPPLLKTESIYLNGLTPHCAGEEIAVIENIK

Assay [2] deals with T2, POPDC1-VN and POPDC1-VC (mouse POPDC1 fused to a half of Venus) (mouse) (UniProt Q9ES83).
T2 sequence: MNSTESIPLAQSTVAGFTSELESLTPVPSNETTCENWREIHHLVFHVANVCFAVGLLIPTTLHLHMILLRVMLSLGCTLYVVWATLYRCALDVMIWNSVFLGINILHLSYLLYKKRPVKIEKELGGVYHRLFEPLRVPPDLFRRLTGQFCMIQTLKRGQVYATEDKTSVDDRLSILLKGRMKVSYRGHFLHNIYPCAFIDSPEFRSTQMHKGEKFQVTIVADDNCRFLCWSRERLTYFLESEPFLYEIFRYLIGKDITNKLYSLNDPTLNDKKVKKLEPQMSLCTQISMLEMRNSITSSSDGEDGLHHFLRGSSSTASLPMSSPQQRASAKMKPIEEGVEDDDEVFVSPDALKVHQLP
Described as above.

In assay [3] the target is T3, Flag-tagged AC9 (adenylyl cyclase 9) (human) (UniProt O60503).
T3 sequence: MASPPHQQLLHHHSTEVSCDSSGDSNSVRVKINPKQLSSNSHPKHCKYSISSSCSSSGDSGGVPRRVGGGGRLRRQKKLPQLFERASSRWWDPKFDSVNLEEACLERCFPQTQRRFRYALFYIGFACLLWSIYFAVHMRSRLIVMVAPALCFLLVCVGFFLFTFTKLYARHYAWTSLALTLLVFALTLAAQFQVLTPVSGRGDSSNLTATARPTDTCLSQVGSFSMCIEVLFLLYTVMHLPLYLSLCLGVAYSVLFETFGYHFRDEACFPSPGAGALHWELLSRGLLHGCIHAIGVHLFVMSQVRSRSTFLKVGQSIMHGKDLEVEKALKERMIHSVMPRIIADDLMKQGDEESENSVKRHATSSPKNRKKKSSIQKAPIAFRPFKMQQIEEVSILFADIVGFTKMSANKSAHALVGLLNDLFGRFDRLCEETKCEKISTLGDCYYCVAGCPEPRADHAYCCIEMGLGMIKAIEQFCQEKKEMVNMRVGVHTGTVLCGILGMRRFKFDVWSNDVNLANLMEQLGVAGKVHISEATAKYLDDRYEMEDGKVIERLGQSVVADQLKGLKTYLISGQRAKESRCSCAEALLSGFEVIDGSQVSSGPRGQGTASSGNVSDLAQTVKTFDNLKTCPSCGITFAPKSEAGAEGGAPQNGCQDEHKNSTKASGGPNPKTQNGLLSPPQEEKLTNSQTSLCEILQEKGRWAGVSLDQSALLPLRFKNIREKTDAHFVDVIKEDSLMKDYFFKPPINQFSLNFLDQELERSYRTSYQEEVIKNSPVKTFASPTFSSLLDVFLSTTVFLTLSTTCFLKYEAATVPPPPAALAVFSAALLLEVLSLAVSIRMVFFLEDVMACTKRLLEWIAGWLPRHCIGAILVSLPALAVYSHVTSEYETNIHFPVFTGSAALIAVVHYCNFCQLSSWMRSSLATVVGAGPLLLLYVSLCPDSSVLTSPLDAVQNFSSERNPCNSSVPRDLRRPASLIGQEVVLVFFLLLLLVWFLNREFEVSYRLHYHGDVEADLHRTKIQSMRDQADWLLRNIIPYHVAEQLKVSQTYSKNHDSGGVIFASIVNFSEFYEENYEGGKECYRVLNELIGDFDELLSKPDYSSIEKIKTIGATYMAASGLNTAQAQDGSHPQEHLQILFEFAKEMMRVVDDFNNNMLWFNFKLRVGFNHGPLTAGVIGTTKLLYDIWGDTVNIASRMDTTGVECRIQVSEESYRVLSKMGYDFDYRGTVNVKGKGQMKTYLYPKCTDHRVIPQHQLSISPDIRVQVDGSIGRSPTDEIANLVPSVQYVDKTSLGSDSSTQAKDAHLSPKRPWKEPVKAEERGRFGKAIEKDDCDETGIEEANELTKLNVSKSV
The experiment in a line: co-IP; HEK293 lysates, immunoprecipitation of Flag-AC9 with anti-FLAG, western blot with anti-MYC and anti-FLAG. In general terms: In western blotting, separated proteins are transferred to a membrane and probed.

Assay [4] deals with YFP-tagged TREK-1 (human) (UniProt O95069). In words: co-IP; HEK293 lysates, immunoprecipitation of YFP-tagged TREK-1 (anti-GFP or TREK-1 antibodies), western blot; with or without overexpressed POPDC1-Myc or AKAP79; with or without ISO (10 μM, 10 min).

No constants are given. Whether binding was seen depends on the method and setting. Binding seen in cells or lysates may run through a third protein. Some results given as binding are weak or reduced against the parent protein; the word gives no strength. Tags and fused reporters may be left off the sequences shown.

B1: AC9-VN and AC9-VC (AC9 fused to the N-terminal or C-terminal half of Venus), O60503 1-1353 (enzyme)
chain: MASPPHQQLLHHHSTEVSCDSSGDSNSVRVKINPKQLSSNSHPKHCKYSISSSCSSSGDSGGVPRRVGGGGRLRRQKKLPQLFERASSRWWDPKFDSVNLEEACLERCFPQTQRRFRYALFYIGFACLLWSIYFAVHMRSRLIVMVAPALCFLLVCVGFFLFTFTKLYARHYAWTSLALTLLVFALTLAAQFQVLTPVSGRGDSSNLTATARPTDTCLSQVGSFSMCIEVLFLLYTVMHLPLYLSLCLGVAYSVLFETFGYHFRDEACFPSPGAGALHWELLSRGLLHGCIHAIGVHLFVMSQVRSRSTFLKVGQSIMHGKDLEVEKALKERMIHSVMPRIIADDLMKQGDEESENSVKRHATSSPKNRKKKSSIQKAPIAFRPFKMQQIEEVSILFADIVGFTKMSANKSAHALVGLLNDLFGRFDRLCEETKCEKISTLGDCYYCVAGCPEPRADHAYCCIEMGLGMIKAIEQFCQEKKEMVNMRVGVHTGTVLCGILGMRRFKFDVWSNDVNLANLMEQLGVAGKVHISEATAKYLDDRYEMEDGKVIERLGQSVVADQLKGLKTYLISGQRAKESRCSCAEALLSGFEVIDGSQVSSGPRGQGTASSGNVSDLAQTVKTFDNLKTCPSCGITFAPKSEAGAEGGAPQNGCQDEHKNSTKASGGPNPKTQNGLLSPPQEEKLTNSQTSLCEILQEKGRWAGVSLDQSALLPLRFKNIREKTDAHFVDVIKEDSLMKDYFFKPPINQFSLNFLDQELERSYRTSYQEEVIKNSPVKTFASPTFSSLLDVFLSTTVFLTLSTTCFLKYEAATVPPPPAALAVFSAALLLEVLSLAVSIRMVFFLEDVMACTKRLLEWIAGWLPRHCIGAILVSLPALAVYSHVTSEYETNIHFPVFTGSAALIAVVHYCNFCQLSSWMRSSLATVVGAGPLLLLYVSLCPDSSVLTSPLDAVQNFSSERNPCNSSVPRDLRRPASLIGQEVVLVFFLLLLLVWFLNREFEVSYRLHYHGDVEADLHRTKIQSMRDQADWLLRNIIPYHVAEQLKVSQTYSKNHDSGGVIFASIVNFSEFYEENYEGGKECYRVLNELIGDFDELLSKPDYSSIEKIKTIGATYMAASGLNTAQAQDGSHPQEHLQILFEFAKEMMRVVDDFNNNMLWFNFKLRVGFNHGPLTAGVIGTTKLLYDIWGDTVNIASRMDTTGVECRIQVSEESYRVLSKMGYDFDYRGTVNVKGKGQMKTYLYPKCTDHRVIPQHQLSISPDIRVQVDGSIGRSPTDEIANLVPSVQYVDKTSLGSDSSTQAKDAHLSPKRPWKEPVKAEERGRFGKAIEKDDCDETGIEEANELTKLNVSKSV
As for B1, the binding entry in assay [1] is “binds”.

B2: POPDC1-VN and POPDC1-VC (mouse POPDC1 fused to a half of Venus) (protein, UniProt Q9ES83 1-358)
chain: MNSTESIPLAQSTVAGFTSELESLTPVPSNETTCENWREIHHLVFHVANVCFAVGLLIPTTLHLHMILLRVMLSLGCTLYVVWATLYRCALDVMIWNSVFLGINILHLSYLLYKKRPVKIEKELGGVYHRLFEPLRVPPDLFRRLTGQFCMIQTLKRGQVYATEDKTSVDDRLSILLKGRMKVSYRGHFLHNIYPCAFIDSPEFRSTQMHKGEKFQVTIVADDNCRFLCWSRERLTYFLESEPFLYEIFRYLIGKDITNKLYSLNDPTLNDKKVKKLEPQMSLCTQISMLEMRNSITSSSDGEDGLHHFLRGSSSTASLPMSSPQQRASAKMKPIEEGVEDDDEVFVSPDALKVHQLP
In the case of B2, the binding result in assay [2] is “binds”.

B3: POPDC1-Myc (Popeye domain-containing protein 1, Myc-tagged) (protein, UniProt Q9ES83 1-358)
chain: MNSTESIPLAQSTVAGFTSELESLTPVPSNETTCENWREIHHLVFHVANVCFAVGLLIPTTLHLHMILLRVMLSLGCTLYVVWATLYRCALDVMIWNSVFLGINILHLSYLLYKKRPVKIEKELGGVYHRLFEPLRVPPDLFRRLTGQFCMIQTLKRGQVYATEDKTSVDDRLSILLKGRMKVSYRGHFLHNIYPCAFIDSPEFRSTQMHKGEKFQVTIVADDNCRFLCWSRERLTYFLESEPFLYEIFRYLIGKDITNKLYSLNDPTLNDKKVKKLEPQMSLCTQISMLEMRNSITSSSDGEDGLHHFLRGSSSTASLPMSSPQQRASAKMKPIEEGVEDDDEVFVSPDALKVHQLP
Take B3: the binding entry in assay [3] and in assay [4] was “binds” each time.

B4: endogenous POPDC1 of HEK293 cells (protein, UniProt Q8NE79 1-360)
chain: MNYTESSPLRESTAIGFTPELESIIPVPSNKTTCENWREIHHLVFHVANICFAVGLVIPTTLHLHMIFLRGMLTLGCTLYIVWATLYRCALDIMIWNSVFLGVNILHLSYLLYKKRPVKIEKELSGMYRRLFEPLRVPPDLFRRLTGQFCMIQTLKKGQTYAAEDKTSVDDRLSILLKGKMKVSYRGHFLHNIYPCAFIDSPEFRSTQMHKGEKFQVTIIADDNCRFLCWSRERLTYFLESEPFLYEIFRYLIGKDITNKLYSLNDPTLNDKKAKKLEHQLSLCTQISMLEMRNSIASSSDSDDGLHQFLRGTSSMSSLHVSSPHQRASAKMKPIEEGAEDDDDVFEPASPNTLKVHQLP
As for B4, the binding entry in assay [4] is recorded as “binds”.

B5: POPDC2-Myc (protein, UniProt Q9ES82 1-367)
chain: MSANGSSVAQLLWQPPVCRSWKPDVEGAVYHLANCFLLMGFMAGSGVYGCFYLFGILGPGYLCCVLWGWFDACGLDIVLWNVLLTVACLLQLAQLVYRVRVNTLPEEFNLLYRTLCLPLQVPLQVYKEIVHCCHEQVLTLATEQTYAVEGETPINRLSLLLSGRVRVSQDGQFLHYIFPYQFMDSPEWESLHPSEEGTFQVTLTAETECSYISWPRKNLYLLLNRERYISRLFSALLGYDISEKLYTLNDKLFAKFGLRFDIRLPSLYHVLSPSASDGEPESEKDDEEALEAAVSPAQARPICIVPTPPCSAPPATTNFPVPLPRARMPRMPRPDSGNLASRRPLQNSSQVMSRSQAPLAPIHTPEL
In the case of B5, in assay [3], the binding entry is “binds”.

Source of the values: PMC9724675.
